Our source for the binding values is article PMC9177701, “Taf2 mediates DNA binding of Taf14” (Nature Communications, 2022).

No constants are given. Whether binding was seen depends on the method and setting. For some of these results: Binding seen in cells or lysates may run through a third protein. Some results given as binding are weak or reduced against the parent protein; the word gives no strength. For some of these results: Sequences can lack the tags named with a protein.

Experiment [1] has as its target T1, HA-Taf2_(mut_ΔC) (S. cerevisiae) (UniProt P23255).
T1 sequence: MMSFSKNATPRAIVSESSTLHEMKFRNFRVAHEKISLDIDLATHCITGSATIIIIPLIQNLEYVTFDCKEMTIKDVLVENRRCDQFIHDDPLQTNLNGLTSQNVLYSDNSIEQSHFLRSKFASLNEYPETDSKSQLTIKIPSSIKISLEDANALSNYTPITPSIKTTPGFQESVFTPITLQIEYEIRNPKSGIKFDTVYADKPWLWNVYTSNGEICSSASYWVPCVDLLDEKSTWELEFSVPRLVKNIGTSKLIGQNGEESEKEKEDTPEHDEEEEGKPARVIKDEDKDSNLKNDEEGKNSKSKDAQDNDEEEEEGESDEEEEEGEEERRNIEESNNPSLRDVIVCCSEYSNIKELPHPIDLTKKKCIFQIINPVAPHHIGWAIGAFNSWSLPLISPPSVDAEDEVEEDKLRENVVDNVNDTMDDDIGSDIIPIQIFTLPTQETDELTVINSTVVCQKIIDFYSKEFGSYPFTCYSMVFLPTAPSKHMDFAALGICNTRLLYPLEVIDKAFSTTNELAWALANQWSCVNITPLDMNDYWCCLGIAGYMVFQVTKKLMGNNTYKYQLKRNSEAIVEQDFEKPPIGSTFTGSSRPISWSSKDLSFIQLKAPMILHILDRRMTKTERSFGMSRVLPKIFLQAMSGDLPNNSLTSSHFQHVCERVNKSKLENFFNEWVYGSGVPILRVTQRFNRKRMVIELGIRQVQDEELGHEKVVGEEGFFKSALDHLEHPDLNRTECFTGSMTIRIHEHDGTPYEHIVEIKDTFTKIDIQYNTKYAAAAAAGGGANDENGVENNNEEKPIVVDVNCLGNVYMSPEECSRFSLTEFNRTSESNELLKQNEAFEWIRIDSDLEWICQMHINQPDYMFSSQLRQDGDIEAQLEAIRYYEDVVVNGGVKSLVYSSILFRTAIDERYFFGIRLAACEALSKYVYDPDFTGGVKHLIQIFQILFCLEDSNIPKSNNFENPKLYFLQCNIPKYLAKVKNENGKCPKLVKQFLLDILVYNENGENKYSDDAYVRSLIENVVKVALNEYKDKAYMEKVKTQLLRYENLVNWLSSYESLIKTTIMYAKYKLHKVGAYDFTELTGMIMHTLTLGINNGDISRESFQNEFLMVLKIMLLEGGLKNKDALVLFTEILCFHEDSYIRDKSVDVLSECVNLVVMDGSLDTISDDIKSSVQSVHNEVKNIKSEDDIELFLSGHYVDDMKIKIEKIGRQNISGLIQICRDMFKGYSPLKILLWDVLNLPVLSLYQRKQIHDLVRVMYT
In words: co-IP; 2 mg soluble protein extract of pseudodiploid yeast, anti-HA 12CA5 mAb with 50 ng/μl ethidium bromide, 4 °C 2 h, protein A-Sepharose; blots with anti-HA and anti-Taf polyclonal antibodies.

Experiment [2] has as its target Taf14_(YEATS) (YEATS domain of Taf14, aa 1–137) (S. cerevisiae) (UniProt P35189). In words: NMR titration; 1H,15N HSQC of 0.1–0.3 mM uniformly 15N-labeled Taf14 protein, unlabeled peptide added; 298 K; 50 mM Tris-HCl pH 6.6–7.5, 150 mM NaCl, 0–5 mM DTT or 0.2 mM TCEP, or 1x PBS pH 6.6–7.5; both purified.
In experiment [3] the target is T2, Taf14FL (full-length Taf14, aa 1–244) (S. cerevisiae, UniProt P35189 1-244).
T2 construct: Taf14 (transcription initiation factor subunit 14), S. cerevisiae, aa 1–244, a 244-residue protein; In the EMSAs (functional rows) GST-Taf14 or Taf14 proteins were used; source: E. coli Rosetta-2 (DE3) pLysS, purified (SEC for cross-linking; 15N-labeled for NMR)
T2 sequence (looked up): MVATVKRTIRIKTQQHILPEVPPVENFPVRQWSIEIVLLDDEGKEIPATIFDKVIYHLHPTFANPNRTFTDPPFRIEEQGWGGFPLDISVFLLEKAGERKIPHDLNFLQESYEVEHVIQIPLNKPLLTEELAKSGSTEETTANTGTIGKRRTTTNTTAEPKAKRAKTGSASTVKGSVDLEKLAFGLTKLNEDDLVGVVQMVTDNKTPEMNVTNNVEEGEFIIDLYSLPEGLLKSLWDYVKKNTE
In words: cross-linking; DSSO cross-linking with mass spectrometry; 1 mM SEC purified Taf14FL with 10.8 mM Taf2CT peptide, 2.5 mM DSSO, 25 mM Hepes pH 7.5, 150 mM NaCl, 1 h at 23 °C; both purified.

Consider “Taf14 (endogenous, yeast extract) (from UniProt P35189 1-244)”, for which the binding result in experiment [1] is recorded as “no binding”.
For the molecule SRSFMVKDRTK (peptide, UniProt P23255 1392-1402) [Taf2_(CT(I1399D)) peptide (aa 1392–1402)], the binding entry in experiment [2] is “no binding”.
In the case of SRSFMVKIRTKN (peptide, UniProt P23255 1392-1403) [Taf2CT peptide (aa 1392–1403)], the binding entry in experiment [3] was “binds”.

B1: Taf3 (protein, UniProt Q12297 1-353)
chain: MTTNNDFYFALLRISILQLLKAQGFDRARPSLVDVMTDLYAKFLSLLASEVSSIAQARCDQDDTIALQDITLALENLGIVKPTNVLDVYDENSELSSSRGMEKFKDWCIYSTQLTDARITALPTVELLQSEEKESDPLSAIPDYLNQLLQNKGAKQKLETKNRKTELIEDLINNNGLDDWIKLVIARQRINMIERASKKESQNVPALPHIAGYKSSILSRHHHTTITNEDRMPSAMTPRDEDALTEIQENPFVTSKLPIMRKENRLENITLSFEDEELESLGEVEGPNQKSQENNNEESFKENNKSLTESPHGDDRDISMFQFDSNVDTKWAEQEDMDSTFQRRTSLDYGGYF
Regarding B1, the binding result in experiment [1] is given as “binds”.

B2: Taf7 (protein, UniProt Q05021 1-590)
chain: MAVIRIKKPRGPGEKDQPLEGEPKLKRIRIKTKVTDEDIKPKPKLKINLKKKKESADGKEKKNSLKLKLNLKKNEEPVKKIHKAPKLRLKPIRIPGEAYDSEASDIEDDPLIESGVILRILPDIQLEFVKNSLESGDYSGISIKWKNERHAVVTINDVMYGAILVDLPTVIEVNKSVDRKNLLKTFDVSQMLLCIRPIQEEEEVYALEAPDTEDLVVKHFEGIEDEIWENKETFLKGYNGAPLSDMEAKHLKEIALKGYDYKHGISPPLYNVRNRRFRRKMDPNEIDYVEKVVDMLLKQDKQAEEVSYDLVDKSELQARQERVSSWENFKEEPGEPLSRPALKKEEIHTIASAVGKQGAEEEGEEGMEEEEEEDLDLGAAFESEEEGSGAEGDKEQQQEEVGDEVDQDTGGEDDDDDDDGDIEAAGGESESDDEKDENRQHTELLADELNELETTLAHTKHKLSKATNPLLKSRFIDSIKKLEKEAELKRKQLQQTEDSVQKQHQHRSDAETANNVEEEEEEEEEEEEEDEVDEDEEDDEENDEDEDNVHEREHIQENKVVRELDEAPAEETLDQNDLDMMMLFGAEGDE
B2: the binding result in experiment [1] is on record as “binds”.

B3: Taf8 (protein, UniProt Q03750 1-510)
chain: MTSKTSESGTGTQSTIVQLRNLPDLTEISHLEIDAPVVEILKKTVLFQLNSLNICISNFALDELVNLVTVQMDGMFRNLHNLTLLQRRSQASQADLKLLLREFNLDAPSLYQQFQASEFIKSKHSTEYEKLMSWSSLAALPHNEEDEEDELNNIEEQQNEINVLLPPSNPLEKQIPSWLPNFPPDHTYKFTPEFNHPITDLKTIKKEIVKESQESEKALLNLNKSLSHISSASNTPQPPGLDDEDAIEQQLEIWGNALEERKPTITEKSFNENNIEQYAKYRVELARERVTKFEVNQLKRTKNPFLKISETLYLPESPHQSHKTIQKTIELQFRKSMTLFMHNLPKVQKLKKEKIRMAKEERAKSLKRRQEELISQRTKREQDEGHDLELLLNNEHARDAADDTTTPNALNNSTIVINTNAEDEDDDINLFGILGSSEDENEMSSMPAENLVAESEPPTMTAQDTTNTTPVAHNTTNIDATTSHSPHSTPNENAPTSPPADIATDHDITM
With B3, in experiment [1], the binding entry is recorded as “binds”.
With SRSFMDKIRTK (peptide, UniProt P23255 1392-1402) [Taf2_(CT(V1397D)) peptide (aa 1392–1402)], the binding result in experiment [2] was “no binding”.
